Reference: the supplement of paper PMC6002552
This is one part of the list. Many values rest on one well or one pass, so single values are uncertain.

Each compound was assayed on Bacillus subtilis 168 spores (assay: spore germination/outgrowth inhibition class (0 mild or none, 1 inhibitory, 3 highly inhibitory, 4 no outgrowth, 5 no germination) (ordinal class code); higher = stronger inhibition of spore germination/outgrowth). Conditions: 100 µg/ml; pH 7.4; 8 h.
Procedure: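 Heat-activated Bacillus subtilis 168 spores (OD595 0.2) in TSB with AGFK germinants, buffered with 80 mM MOPS at pH 7.4, were exposed to 100 µg/ml compound (Pyxis Discovery library, catalogue IDs). OD595 was followed for 8 h at 37 °C in a plate reader. Each compound was assigned an ordinal inhibition class: 0 mild/no inhibition (reached 2x initial OD within 2-3 h), 1 inhibitory (3-6 h), 3 highly inhibitory (6-8 h), 4 no outgrowth within 8 h, 5 no germination (no OD decline).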
In the case of `Cc1ccc(C(=O)Nc2nc3ccccc3s2)o1`, the “spore germination/outgrowth inhibition class” value is reported as inactive: 0. With `O=C1CC(Sc2ncn[nH]2)C(=O)N1c1ccccc1` (stereo not drawn) the “spore germination/outgrowth inhibition class” value was inactive: 0. For `COc1ccc(C2C([N+](=O)[O-])=C(N)Oc3n[nH]c(C)c32)cc1` (stereo not drawn), the “spore germination/outgrowth inhibition class” value was inactive: 0. In the case of `O=c1[nH]c2nonc2nc1Nc1ccccc1F`, the “spore germination/outgrowth inhibition class” value is reported as inactive: 0. With `CC(C)c1[nH]nc2c1C(c1ccc(F)cc1)C(C#N)=C(N)O2` (stereo not drawn) the “spore germination/outgrowth inhibition class” value was inactive: 0. For `CC(C)c1[nH]nc2c1C(c1cccc(F)c1)C(C#N)=C(N)O2` (stereo not drawn), the “spore germination/outgrowth inhibition class” value was inactive: 0. `CN1C(=O)C(c2c(O)n(C)c3ccccc23)=NC1=S` was tested, and the “spore germination/outgrowth inhibition class” value was inactive: 0. For `CCC(=O)Cc1nnc2c(Nc3ccc(Cl)cc3)nc3nonc3n12`, the “spore germination/outgrowth inhibition class” value was active: 4. With `CCOC(=O)c1nc(NC(C)=O)n[nH]1` the “spore germination/outgrowth inhibition class” value was inactive: 0. With `COC(=O)c1nc(NC(C)=O)n[nH]1` the “spore germination/outgrowth inhibition class” value was inactive: 0. For `N#CC1=C(N)Oc2n[nH]c(C(F)(F)F)c2C1c1cccc(Cl)c1Cl` (stereo not drawn), the “spore germination/outgrowth inhibition class” value was active: 5. For `O=C1C(=O)c2ccccc2C([O-])=C1[n+]1ccccc1`, the “spore germination/outgrowth inhibition class” value was inactive: 0. For `CCc1[nH]nc2c1C(c1ccc(F)cc1F)C(C#N)=C(N)O2` (stereo not drawn), the “spore germination/outgrowth inhibition class” value was inactive: 0. With `Cc1ccc(NC(=O)c2snnc2C)cc1` the “spore germination/outgrowth inhibition class” value was inactive: 0. With `Nc1nnc2c(Nc3ccccc3)nc3nonc3n12` the “spore germination/outgrowth inhibition class” value was inactive: 0. For `CCc1[nH]nc2c1C(c1ccccc1Cl)C(C#N)=C(N)O2` (stereo not drawn), the “spore germination/outgrowth inhibition class” value was inactive: 0. With `CCN(c1ccccc1)c1nc2nonc2n2cnnc12` the “spore germination/outgrowth inhibition class” value was inactive: 0. For `Cc1cccc(Nc2nc3nonc3nc2Nc2ccccc2C)c1`, the “spore germination/outgrowth inhibition class” value was active: 4.
